Out of some 410,000 compounds screened, about 5,000 (1.2%) were called active. This list was built around the results that the source calls inconclusive (neither active nor inactive); the mix of calls is not that of the screen. The call rests on the fitted dose curve; in most records, active means well fitted inhibition curve with a large enough effect; inconclusive means small, poorly fitted or top-dose-only effect; inactive means no such curve, though single readings can be large or run the other way. Where the call is inconclusive, the potency comes from a doubtful curve fit.
assay: qHTS for Inhibitors of TGF-b; details: HepG2 CAGA-GFP TGF-b/SMAD3 reporter, GFP fluorescence, 18 h, TGF-beta stimulated, 500 pg/mL final; series mostly up to 46.1 µM; further: nearly all actives have a fitted effect of over 65% in size
Procedure, shortened: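 First, reporter cells (HEPG2 CAGA-GFP) rested 2 h at 37 degrees C. Next, compounds were pinned in and TGF-beta added to 500 pg/mL final. After 18 h, GFP was imaged per cell and summed per well.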
Potency means the concentration at half of the fitted maximal effect; tags describe the fitted curve by direction and shape.

| Compound | Potency |
| --- | --- |
| COC(=O)C1=CN(c2cccc(C(F)(F)F)c2)C=C(C(=O)OC)C1c1ccc(O)c(OC)c1 | inconclusive: 20 µM [inhibitor, single point] |
| CC(C)(C)OC(=O)N[C@@H](Cc1ccccc1)C(=O)N[C@@H](CO)[C@H](O)[C@@H]1C[C@@H]1C(=O)NC1CCCCC1 | inconclusive: 5.62 µM [inhibitor, single point] |
| CC/C(O)=C(\C#N)c1nnc2n1CCCCC2 | inactive |
| Cc1ccc(-c2csc(NC(=O)c3ccc(-c4ccccc4)cc3)n2)o1 | active: 12.6 µM |
| Cc1nc2c(Br)cc(Br)cc2cc1O | inconclusive: 35.5 µM [inhibitor, single point] |
| CC(=O)Nc1ccc(NC(=O)CSc2ccc(C)cc2)cc1 | inactive |
| O=C1c2cccc(NCCCNCCO)c2C(=O)c2cccc(NCCCNCCO)c21 | active: 15.8 µM |
| CCN(CC)CCCNC(=O)CCCn1c(=O)[nH]c2ccc(Br)cc2c1=O | inactive |
| Cc1sc2ccccc2[n+]1CCCCBr | inconclusive: 25.1 µM [inhibitor, single point] |
| O=C1/C(=C/c2ccc(Br)cc2)Oc2cc(O)ccc21 | inconclusive: 12.6 µM [inhibitor, partial curve, poor fit] |
| CC1(C(=O)NS(=O)(=O)c2cccc(OC(F)F)c2)CCN1C(=O)CC1CCCC1 (centres undefined) | inactive |
| O=C(Nc1cccc(S(=O)(=O)N2CCCCC2)c1)C1CCN(C(=O)c2ccc(Cl)cc2)CC1 | inconclusive: 7.08 µM [inhibitor, partial curve, poor fit] |
| CC(=O)c1cccc(NC(=O)C2CCN(C(=O)c3ccc([N+](=O)[O-])cc3)CC2)c1 | inconclusive: 35.5 µM [inhibitor, single point] |
| CCO[C@@H]1OC(C(=O)N2CCN(Cc3ccc4c(c3)OCO4)CC2)=C[C@H](c2csc3ccccc23)[C@H]1CCCO | inconclusive: 20 µM [inhibitor, single point] |
| Cc1ccc(Cn2c(C)nc3ccc([N+](=O)[O-])cc3c2=O)cc1 | inactive |
| CN1C(=O)c2ccccc2Sc2ccc(NC(=O)Cc3c(F)cccc3Cl)cc21 | active: 10 µM |
| CCC(=O)Nc1ccc(C)cc1-c1nc2ccccc2n(C(C)C(=O)Nc2ccccc2CC)c1=O (centres undefined) | inconclusive: 20 µM [inhibitor, partial curve, poor fit] |
| COc1ccc(N2CCN(C(=O)Cn3nnc(-c4ccc(N(C)C)cc4)n3)CC2)cc1 | inconclusive: 35.5 µM [inhibitor, single point] |
| C/C(CC(=O)Nc1ccc(C)c(Cl)c1)=N\NC(=O)c1cccc(O)c1 | inconclusive: 8.91 µM [inhibitor, partial curve, poor fit] |

Source: PubChem BioAssay AID588855 (National Center for Advancing Translational Sciences (NCATS), 2011)
